Results taken from article PMC9462479.
These are yes or no findings as the source states them, for the method shown. In cells and extracts the contact can be indirect. Some results given as binding are weak or reduced against the parent protein; the word gives no strength. For some assays here: Tags and fused reporters may be left off the sequences shown.

T1: SREBF1, endogenous in NCI-H295R adrenocortical cells (human (endogenous in NCI-H295R)) (UniProt P36956)
T1 sequence: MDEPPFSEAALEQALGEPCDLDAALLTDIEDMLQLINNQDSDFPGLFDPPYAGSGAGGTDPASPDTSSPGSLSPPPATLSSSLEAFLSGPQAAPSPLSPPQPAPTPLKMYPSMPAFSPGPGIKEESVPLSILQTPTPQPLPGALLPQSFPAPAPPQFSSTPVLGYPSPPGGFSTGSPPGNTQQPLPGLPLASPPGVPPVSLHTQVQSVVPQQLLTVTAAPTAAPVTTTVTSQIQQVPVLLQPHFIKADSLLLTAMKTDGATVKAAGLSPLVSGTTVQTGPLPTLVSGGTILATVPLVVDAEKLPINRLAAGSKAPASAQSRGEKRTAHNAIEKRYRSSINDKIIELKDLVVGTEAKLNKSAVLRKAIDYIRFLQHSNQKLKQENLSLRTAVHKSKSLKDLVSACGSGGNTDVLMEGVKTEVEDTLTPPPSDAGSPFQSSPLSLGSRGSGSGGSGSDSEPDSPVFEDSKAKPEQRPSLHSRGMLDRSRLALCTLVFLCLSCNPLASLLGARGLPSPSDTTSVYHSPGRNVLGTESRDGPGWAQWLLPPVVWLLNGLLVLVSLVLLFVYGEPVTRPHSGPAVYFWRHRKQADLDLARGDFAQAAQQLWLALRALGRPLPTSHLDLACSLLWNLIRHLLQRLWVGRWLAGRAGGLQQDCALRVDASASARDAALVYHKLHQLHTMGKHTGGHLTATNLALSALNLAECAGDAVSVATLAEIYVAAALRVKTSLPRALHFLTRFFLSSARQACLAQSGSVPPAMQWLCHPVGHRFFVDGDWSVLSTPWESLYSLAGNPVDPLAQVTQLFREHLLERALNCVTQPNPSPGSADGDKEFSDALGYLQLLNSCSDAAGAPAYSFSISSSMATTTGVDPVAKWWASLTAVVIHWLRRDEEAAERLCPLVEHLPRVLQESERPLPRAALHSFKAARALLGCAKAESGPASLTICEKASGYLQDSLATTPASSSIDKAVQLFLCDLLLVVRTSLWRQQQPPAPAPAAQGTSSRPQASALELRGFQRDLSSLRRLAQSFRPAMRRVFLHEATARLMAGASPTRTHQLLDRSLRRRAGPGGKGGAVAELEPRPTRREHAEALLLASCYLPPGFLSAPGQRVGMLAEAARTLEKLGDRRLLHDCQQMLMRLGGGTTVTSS

T2: myc-tagged mouse ARMC5 (pcDNA3.1-myc-mArmc5) (mouse) (UniProt Q5EBP3)
T2 sequence: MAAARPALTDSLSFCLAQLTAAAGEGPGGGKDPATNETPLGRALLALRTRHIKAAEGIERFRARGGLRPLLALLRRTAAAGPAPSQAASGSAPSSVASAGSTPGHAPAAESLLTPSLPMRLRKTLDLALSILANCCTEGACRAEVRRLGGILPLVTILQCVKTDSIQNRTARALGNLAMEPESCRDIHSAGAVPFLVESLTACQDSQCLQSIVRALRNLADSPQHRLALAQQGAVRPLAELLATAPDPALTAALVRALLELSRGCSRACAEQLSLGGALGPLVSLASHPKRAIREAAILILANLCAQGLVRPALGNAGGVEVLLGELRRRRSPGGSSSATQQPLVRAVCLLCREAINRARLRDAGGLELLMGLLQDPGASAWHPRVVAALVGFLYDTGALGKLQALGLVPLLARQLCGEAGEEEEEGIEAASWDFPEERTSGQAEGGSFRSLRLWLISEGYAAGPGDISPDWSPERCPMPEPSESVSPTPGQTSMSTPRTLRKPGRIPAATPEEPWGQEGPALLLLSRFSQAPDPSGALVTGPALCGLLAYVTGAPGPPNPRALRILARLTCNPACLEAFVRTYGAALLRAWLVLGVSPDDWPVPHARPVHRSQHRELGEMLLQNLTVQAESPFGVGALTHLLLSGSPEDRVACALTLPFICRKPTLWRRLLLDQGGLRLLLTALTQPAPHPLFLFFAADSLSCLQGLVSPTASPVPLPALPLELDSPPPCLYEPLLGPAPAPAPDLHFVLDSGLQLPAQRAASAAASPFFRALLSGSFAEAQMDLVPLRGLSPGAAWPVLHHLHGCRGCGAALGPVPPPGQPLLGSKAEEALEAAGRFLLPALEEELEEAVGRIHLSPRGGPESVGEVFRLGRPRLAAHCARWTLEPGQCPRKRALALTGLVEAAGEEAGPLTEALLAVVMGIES


How the values were obtained:
[1] = molecular target: T1, SREBF1, endogenous in NCI-H295R adrenocortical cells (human (endogenous in NCI-H295R)); experiment: proximity ligation; in situ proximity ligation assay (Duolink RED) in fixed, permeabilised NCI-H295R cells with anti-ARMC5 and anti-SREBF1 antibodies
[2] = molecular target: T2, myc-tagged mouse ARMC5 (pcDNA3.1-myc-mArmc5) (mouse); experiment: co-IP; Myc IP: HEK293T cells transfected, lysed in TNE buffer (150 mM NaCl, 1% NP40), anti-myc antibody and Protein G Sepharose, blotted with anti-FLAG

binding [1] | binding [2] | Binder
binds | – | ARMC5, endogenous in NCI-H295R adrenocortical cells (protein, UniProt Q96C12 1-935) MAAAKPTLTDSLSFCLAQLAAAAGEALGGEKDPATNETPLSRALLALRTRHIKAAGGIERFRARGGLRPLLALLRRAAAAGSAPSQAGPGSAPSSAASGASSPAPASGPAPSAVSSSSPTPPVRLRKTLDLALSILADCCTEGACRTEVRRLGGILPLVTILQCMKTDSIQNRTARALGNLAMEPESCGDIHCAGAVPLLVESLTACQDSQCLQSVVRALRNLADSPQHRLALAQQGAVRPLAELLATAPDAALTLALVRALLELSRGCSRACAEQLSLGGGLGPLVSLASHPKRAVREGTILILANLCAQGLIRPALGNAGGVEVLVDELRQRRDPNGASPTSQQPLVRAVCLLCREAINRARLRDAGGLDLLMGLLRDPRASAWHPRIVAALVGFLYDTGALGRLQALGLVPLLAGQLCGEAGEEEEEGREAASWDFPEERTPERAQGGSFRSLRSWLISEGYATGPDDISPDWSPEQCPPEPMEPASPAPTPTSLRAPRTQRTPGRSPAAAIEEPWGREGPALLLLSRFSQAPDPSGALVTGPALYGLLTYVTGAPGPPSPRALRILSRLTCNPACLEAFVRSYGAALLRAWLVLGVAPDDWPAPRARPTLHSRHRELGERLLQNLTVQAESPFGVGALTHLLLSGSPEDRVACALTLPFICRKPSLWRRLLLEQGGLRLLLAALTRPAPHPLFLFFAADSLSCLQDLVSPTVSPAVPQAVPMDLDSPSPCLYEPLLGPAPVPAPDLHFLLDSGLQLPAQRAASATASPFFRALLSGSFAEAQMDLVPLRGLSPGAAWPVLHHLHGCRGCGAALGPVPPPGQPLLGSEAEEALEAAGRFLLPGLEEELEEAVGRIHLGPQGGPESVGEVFRLGRPRLAAHCARWTLGSEQCPRKRGLALVGLVEAAGEEAGPLTEALLAVVMGIELGARVPA
– | binds | FLAG-tagged full-length mouse SREBF1 (pcDNA3.1-FLAG-Srebf1) (protein, UniProt Q9WTN3 1-1134) MDELAFGEAALEQTLAEMCELDTAVLNDIEDMLQLINNQDSDFPGLFDAPYAGGETGDTGPSSPGANSPESFSSASLASSLEAFLGGPKVTPAPLSPPPSAPAALKMYPSVSPFSPGPGIKEEPVPLTILQPAAPQPSPGTLLPPSFPAPPVQLSPAPVLGYSSLPSGFSGTLPGNTQQPPSSLPLAPAPGVLPTPALHTQVQSLASQQPLPASAAPRTNTVTSQVQQVPVVLQPHFIKADSLLLTAVKTDAGATVKTAGISTLAPGTAVQAGPLQTLVSGGTILATVPLVVDTDKLPIHRLAAGSKALGSAQSRGEKRTAHNAIEKRYRSSINDKIVELKDLVVGTEAKLNKSAVLRKAIDYIRFLQHSNQKLKQENLTLRSAHKSKSLKDLVSACGSGGGTDVSMEGMKPEVVETLTPPPSDAGSPSQSSPLSFGSRASSSGGSDSEPDSPAFEDSQVKAQRLPSHSRGMLDRSRLALCVLAFLCLTCNPLASLFGWGILTPSDATGTHRSSGRSMLEAESRDGSNWTQWLLPPLVWLANGLLVLACLALLFVYGEPVTRPHSGPAVHFWRHRKQADLDLARGDFPQAAQQLWLALQALGRPLPTSNLDLACSLLWNLIRHLLQRLWVGRWLAGQAGGLLRDRGLRKDARASARDAAVVYHKLHQLHAMGKYTGGHLAASNLALSALNLAECAGDAISMATLAEIYVAAALRVKTSLPRALHFLTRFFLSSARQACLAQSGSVPLAMQWLCHPVGHRFFVDGDWAVHGAPPESLYSVAGNPVDPLAQVTRLFREHLLERALNCIAQPSPGAADGDREFSDALGYLQLLNSCSDAAGAPACSFSVSSSMAATTGPDPVAKWWASLTAVVIHWLRRDEEAAERLYPLVEHIPQVLQDTERPLPRAALYSFKAARALLDHRKVESSPASLAICEKASGYLRDSLASTPTGSSIDKAMQLLLCDLLLVARTSLWQRQQSPASVQVAHGTSNGPQASALELRGFQHDLSSLRRLAQSFRPAMRRVFLHEATARLMAGASPARTHQLLDRSLRRRAGSSGKGGTTAELEPRPTWREHTEALLLASCYLPPAFLSAPGQRMSMLAEAARTVEKLGDHRLLLDCQQMLLRLGGGTTVTSS
